Screen size: about 310,000 compounds; about 2,200 (0.71%) showed an effect of 50% or more. Effects have a minus sign here. This is one part of the list.

Chain of human ether-à-go-go-related gene (hERG) potassium channel (Q12809 whole entry, looked up): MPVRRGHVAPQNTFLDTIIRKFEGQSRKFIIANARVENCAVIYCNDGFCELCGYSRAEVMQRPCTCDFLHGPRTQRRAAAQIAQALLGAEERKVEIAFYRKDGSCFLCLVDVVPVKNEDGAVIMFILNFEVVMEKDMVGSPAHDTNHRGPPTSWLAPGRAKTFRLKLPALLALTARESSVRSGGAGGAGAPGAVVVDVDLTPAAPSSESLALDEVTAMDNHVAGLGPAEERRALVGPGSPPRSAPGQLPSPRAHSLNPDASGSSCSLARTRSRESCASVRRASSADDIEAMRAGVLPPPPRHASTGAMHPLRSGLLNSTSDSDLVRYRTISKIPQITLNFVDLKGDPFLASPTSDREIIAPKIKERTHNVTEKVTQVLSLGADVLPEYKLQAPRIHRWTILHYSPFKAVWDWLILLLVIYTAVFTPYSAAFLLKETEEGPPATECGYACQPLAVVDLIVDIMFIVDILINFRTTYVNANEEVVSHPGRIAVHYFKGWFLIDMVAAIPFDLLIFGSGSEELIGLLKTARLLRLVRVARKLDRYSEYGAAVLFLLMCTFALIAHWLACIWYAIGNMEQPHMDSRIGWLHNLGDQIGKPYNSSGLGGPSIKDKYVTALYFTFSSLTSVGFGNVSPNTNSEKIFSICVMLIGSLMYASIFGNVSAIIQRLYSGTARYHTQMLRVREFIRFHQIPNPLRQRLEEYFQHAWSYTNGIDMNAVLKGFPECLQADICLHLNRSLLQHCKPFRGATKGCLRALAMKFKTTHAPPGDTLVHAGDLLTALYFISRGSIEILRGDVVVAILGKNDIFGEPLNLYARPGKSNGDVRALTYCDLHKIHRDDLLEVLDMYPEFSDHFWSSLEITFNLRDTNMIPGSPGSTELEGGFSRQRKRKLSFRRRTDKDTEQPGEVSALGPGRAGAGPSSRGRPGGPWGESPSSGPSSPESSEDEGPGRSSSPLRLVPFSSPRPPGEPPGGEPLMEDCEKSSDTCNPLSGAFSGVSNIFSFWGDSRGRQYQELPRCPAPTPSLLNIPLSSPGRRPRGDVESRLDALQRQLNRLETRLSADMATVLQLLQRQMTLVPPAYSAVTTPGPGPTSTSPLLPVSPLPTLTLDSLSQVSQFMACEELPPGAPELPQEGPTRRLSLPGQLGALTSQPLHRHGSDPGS

This assay has as its target human ether-à-go-go-related gene (hERG) potassium channel (human, UniProt Q12809). Briefly: primary screen, population patch clamp on CHO cells stably expressing hERG.
As for `CCN1CCN(c2nc3ccccn3c(=O)c2/C=C(\C#N)S(=O)(=O)c2ccccc2)CC1`, the “hERG current change (%, negative = inhibition) at 1uM” value is on record as -4.23%.
For the molecule `CCCn1c(N)c(C(=O)CSc2nc3ccccc3n2CCC#N)c(=O)n(C)c1=O`, the “hERG current change (%, negative = inhibition) at 1uM” value was -0.576%.
With `CNc1ccccc1C(C)(C)c1cc(-c2cccc(Br)c2)no1`, the “hERG current change (%, negative = inhibition) at 1uM” value is recorded as -1.43%.
As for `COc1cc2c(cc1OC)C(c1cccnc1)CC(=O)N2` (stereo not drawn), the “hERG current change (%, negative = inhibition) at 1uM” value was -8.98%.
Take `CCN(CC)C(=O)Cn1nc(C)c2ccccc2c1=O`: the “hERG current change (%, negative = inhibition) at 1uM” value is recorded as 11.3%.
Regarding `O=C(CO/N=C/c1ccccc1OC(F)F)NC1CCCC1`, the “hERG current change (%, negative = inhibition) at 1uM” value came to 4.45%.
For `COc1ccc(S(=O)(=O)n2nc(C)c(S(=O)(=O)N3CCOCC3)c2C)cc1`, the “hERG current change (%, negative = inhibition) at 1uM” value was found to be 12.5%.
Regarding `COc1ccc(/C=N/NC(=O)c2ccc(COc3ccccc3Cl)o2)cc1`, the “hERG current change (%, negative = inhibition) at 1uM” value is reported as 9.4%.
Regarding `O=C(CSc1nnc(NC(=O)c2c(F)cccc2F)s1)NCc1ccco1`, the “hERG current change (%, negative = inhibition) at 1uM” value is reported as 0.575%.
On to `CCOc1ccc(-c2cc(C(=O)N3CCN(c4ccccn4)CC3)c3ccccc3n2)cc1`, for which the “hERG current change (%, negative = inhibition) at 1uM” value stood at 3.46%.
Take `CSc1nc(-c2ccco2)nn1C(=O)c1ccco1`: the “hERG current change (%, negative = inhibition) at 1uM” value came to 10.9%.
As for `Cc1nn(C)c2c(=O)c(=O)c2n(C)[nH]1`, the “hERG current change (%, negative = inhibition) at 1uM” value is listed as 13.1%.
For the molecule `O=Cc1ccccc1OCc1nnsc1Cl`, the “hERG current change (%, negative = inhibition) at 1uM” value is recorded as 12.5%.
As to `O=C(Nc1nc2ccccc2s1)C1CC(=O)N(c2ccc(Cl)cc2)C1` (stereo not drawn), the “hERG current change (%, negative = inhibition) at 1uM” value came to 9.21%.
Then `COc1ccc(S(=O)(=O)Nc2c(C(=O)O)[nH]c3ccccc23)cc1OC`, with 3.58%; and `O.[I-].c1ccc2[nH]c(-c3cc[nH+]c4ccccc34)nc2c1`, with 5.06%.
Then `CC1CC(OC(=O)C(O)c2ccccc2)CC(C)(C)N1C.Cl` (stereo not drawn), with 10.1%; and `COc1ccc2c(c1)Cc1sc(NC(=O)c3cccs3)nc1-2`, with 2.75%; and `Cc1onc(-c2ccccc2Cl)c1C(=O)N[C@@H](C)c1ccccc1`, with 11.2%.
As to `CC1(C)Cc2c(sc(NC(=O)c3ccc(S(=O)(=O)N4CCCCCC4)cc3)c2C#N)C(C)(C)N1`, the “hERG current change (%, negative = inhibition) at 1uM” value is on record as -6.9%.
As for `CN(C)CC(=O)Nc1ccc(S(N)(=O)=O)cc1`, the “hERG current change (%, negative = inhibition) at 1uM” value was 16.2%.
Next, `CC(=O)N1c2ccc(S(=O)(=O)N(C)CC(=O)Nc3cccc(C)c3)cc2CC1C` (stereo not drawn): 13.4%; `CCN(C(=O)CSc1nc(N)cc(=O)[nH]1)c1c(N)n(Cc2ccccc2)c(=O)[nH]c1=O`: 8.53%.
Next, `CCOC(=O)C(C(=O)OCC)C(C)(C)/C(C)=N\Nc1ccc([N+](=O)[O-])cc1[N+](=O)[O-]`: -6.17%.

(Values after paper PMC4336329 (PLoS ONE, 2015).)
